In PMC6212790:
This is one part of the list. At the low end of the ranking the order means little.

molecular target: T1, GST-Rok-C97-191 (UniProt O34857); experiment: protein binding microarray; conditions: Rok is a gene silencer of Bacillus subtilis; high values mean tight binding; most listed sequences are background and not binding sites; double strand, one strand shown;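 also: rank score from −0.5 (least bound) to 0.5 (best bound)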
T1 sequence: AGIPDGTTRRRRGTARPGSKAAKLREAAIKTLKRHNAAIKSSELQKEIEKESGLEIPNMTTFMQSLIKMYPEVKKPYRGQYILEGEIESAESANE

Sequence | binding signal
ATACGGTC | -0.0487 E-score
GCAGAAAC | -0.0283 E-score
TGAGACAA | -0.108 E-score
AATCATGA | 0.00714 E-score
CTCCGTCC | -0.242 E-score
ATGCGTTA | 0.00394 E-score
GGGCAGTA | 0.00262 E-score
AGCGCCGC | -0.349 E-score
ATAGCCTA | 0.0277 E-score
GAATCCTA | -0.0148 E-score
AACGTGCT | -0.0614 E-score
CATAACAG | 0.108 E-score
AGGCTGGA | -0.2 E-score
CTACTATA | 0.371 E-score
ATGAACAC | -0.0606 E-score
CGGACAGC | -0.0658 E-score
ACTCTCAC | 0.104 E-score
CTTCGATA | 0.0594 E-score
CCCCCTGA | -0.365 E-score
CTCGCACA | -0.361 E-score
ACTCACAG | 0.008 E-score
TCTAACAA | 0.0392 E-score

Sequence | binding signal
CTCGGAAC | -0.212 E-score
ACCTCCGA | -0.118 E-score
TAGCAACA | 0.228 E-score
TAACACAA | 0.0622 E-score
CAAATCCA | -0.0871 E-score
CTAATGCC | 0.136 E-score
CAGCCTAC | 0.111 E-score
AAGTGGGA | -0.174 E-score
CCGAACCA | -0.0575 E-score
TTGCCAAA | 0.142 E-score
ACGAATCC | 0.043 E-score
ACTGTTAT | 0.307 E-score
GACTCGCA | -0.105 E-score
CGCCCCCG | -0.235 E-score
CGTACCAC | -0.112 E-score
CTCTTTAC | 0.0967 E-score
AATGGGAA | -0.015 E-score
AGTAGCAC | 0.17 E-score
ATCAGGCC | -0.159 E-score
CACGAATA | 0.112 E-score
TCACGCGA | -0.0183 E-score
AAGCGTCT | -0.127 E-score

Sequence | binding signal
AGCTATCA | 0.335 E-score
GACTGACC | 0.0353 E-score
CGCGAATA | -0.102 E-score
ACAATAGA | 0.233 E-score
CTAGAGTA | 0.159 E-score
CGCCTCTC | -0.278 E-score
AACGTGCA | 0.206 E-score
ACGTGATG | -0.0993 E-score
ACGCTCGC | -0.139 E-score
AGAACCAA | -0.065 E-score
ATGCGGTA | 0.139 E-score
CGGTAGAA | 0.411 E-score
AGCATTCG | 0.0991 E-score
ACAAATAT | 0.337 E-score
GGGGCTAA | -0.0896 E-score
CTGGTCTC | 0.0502 E-score
ACATACAT | 0.235 E-score
ATCTCTAC | 0.118 E-score
ACATCATA | 0.137 E-score
CCGTAAAG | -0.0699 E-score
TCATCTAA | -0.0045 E-score
CATGCACA | -0.138 E-score

Sequence | binding signal
GCCGTGCC | -0.345 E-score
AATGTTTG | 0.0919 E-score
CCATATCA | 0.00206 E-score
AATAGCCA | -0.00528 E-score
ACATCCTC | -0.0024 E-score
ACCTTAGA | -0.0636 E-score
CTAGGGTC | -0.149 E-score
GGCGAGCA | -0.323 E-score
CACCGTTA | 0.0219 E-score
CACCCGGC | -0.0405 E-score
GGGCGGGA | -0.221 E-score
ACCTTGCC | -0.00773 E-score
GTGTAACA | 0.137 E-score
CTATATAG | 0.413 E-score
CAAAACGG | -0.113 E-score
CCGCGCTC | -0.261 E-score
TGACTTAA | 0.00425 E-score
CCGGCGTA | -0.16 E-score
CAAGTGTG | -0.0299 E-score
CGTTACTC | -0.113 E-score
AGCGTCCG | -0.142 E-score
GTCTGACA | -0.163 E-score

Sequence | binding signal
ACAGTTAT | 0.255 E-score
GTGGTACA | 0.03 E-score
CAGGTACC | 0.16 E-score
AACATGTT | -0.0625 E-score
AAAAGCCA | 0.0391 E-score
CTTTACGA | -0.00359 E-score
GAGCTCCA | 0.048 E-score
CCCCTCAA | -0.154 E-score
GAAGTACC | 0.138 E-score
CGCCGCGA | -0.125 E-score
GCACACGA | -0.0278 E-score
CCCTTTAA | -0.0129 E-score
CAGTGGAG | -0.197 E-score
CCAGACAC | -0.145 E-score
CATCCAGA | -0.134 E-score
GAATGTTA | 0.159 E-score
CGAACCTC | -0.238 E-score
CGTCAGAG | -0.2 E-score
AGGTCAAC | -0.116 E-score
ACGTAGAT | 0.219 E-score
AAGTGCAA | -0.052 E-score
CATATACC | 0.222 E-score
